In all, about 110,000 compounds were measured (“z-score”: median about -0.1, highest 2% from about 2 on). This is one part of the list.
The compounds below were run against Metabotropic glutamate receptor 8 (Rattus norvegicus) (UniProt P70579) (assay: mGluR8 Gi/Go-coupled signaling modulation – cell-based, rat, thallium flux, HTS, primary screen (AID 488969)). Conditions: HEK293 rat mGluR8, GIRK (G protein-gated inwardly rectifying potassium channel) thallium flux, FluoZin2; at 10 µM; stronger effect = higher value; submaximal glutamate (EC20) added with thallium.
UniProt P70579, sequence (P70579 whole entry, looked up): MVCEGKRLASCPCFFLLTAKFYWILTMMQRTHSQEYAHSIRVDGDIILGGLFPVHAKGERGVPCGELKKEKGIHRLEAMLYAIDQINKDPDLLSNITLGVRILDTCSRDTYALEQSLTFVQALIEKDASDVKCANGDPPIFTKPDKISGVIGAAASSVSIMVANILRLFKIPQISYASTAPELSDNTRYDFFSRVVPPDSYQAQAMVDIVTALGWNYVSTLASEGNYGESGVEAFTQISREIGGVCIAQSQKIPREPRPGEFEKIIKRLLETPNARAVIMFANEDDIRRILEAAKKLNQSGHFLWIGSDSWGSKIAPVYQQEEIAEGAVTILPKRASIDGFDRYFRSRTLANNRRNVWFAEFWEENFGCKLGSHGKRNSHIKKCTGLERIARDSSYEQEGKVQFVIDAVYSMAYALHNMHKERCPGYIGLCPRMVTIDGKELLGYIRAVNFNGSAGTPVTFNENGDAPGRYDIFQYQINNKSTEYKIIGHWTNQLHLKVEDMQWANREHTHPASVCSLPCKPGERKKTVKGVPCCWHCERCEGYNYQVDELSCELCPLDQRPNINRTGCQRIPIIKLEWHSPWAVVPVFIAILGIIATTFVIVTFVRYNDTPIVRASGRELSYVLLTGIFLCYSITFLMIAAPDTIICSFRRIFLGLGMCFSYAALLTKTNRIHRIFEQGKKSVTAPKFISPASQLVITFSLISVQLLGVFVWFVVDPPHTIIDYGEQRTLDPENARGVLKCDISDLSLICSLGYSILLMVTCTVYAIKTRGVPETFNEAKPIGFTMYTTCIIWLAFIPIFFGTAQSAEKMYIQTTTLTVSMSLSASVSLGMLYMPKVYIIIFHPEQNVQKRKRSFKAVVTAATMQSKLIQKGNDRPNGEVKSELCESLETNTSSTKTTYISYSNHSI
`CCc1ccc(Nc2cnn(-c3nc4ccccc4s3)c(=O)c2Cl)cc1` gave a z-score of -0.0416.
With `CCN(CC)C(=O)CN(C#N)c1nc(C)cc(C)n1` the z-score was 0.274.
For `CCCCN(C(=O)CNC(=O)c1ccco1)C(C(=O)NC1CCCC1)c1ccc(OC)cc1` (stereo not given), the z-score was -1.06.
In the case of `CCn1cc(C2=NCC(C)O2)c2ccccc21` (stereo not given), the z-score is reported as -0.185.
In the case of `CC(CCc1ccccc1)NC(=O)COC(=O)C12CC3CC(CC(Br)(C3)C1)C2` (stereo not given), the z-score is reported as -0.193.
`Cc1cc(=O)oc2ccc(OCC(=O)N3CCC(C)CC3)cc12` gave a z-score of -0.44.
For `Cc1ccc(S(=O)(=O)NC2=C(N3CCN(Cc4ccccc4)CC3)C(=O)c3ccccc3C2=O)cc1`, the z-score was 0.292.
In the case of `O=C1/C(=C/c2cccnc2)SC(=S)N1c1ccc(F)cc1`, the z-score is reported as -0.12.
Work on `COc1ccc2nc(N/C(N)=N/C(=S)Nc3ccc(C)c(C)c3)nc(C)c2c1` yielded a z-score of 0.0146.
With `O=C(NCc1ccccc1)C(=O)NCC(c1ccco1)N1CCOCC1` (stereo not given) the z-score was -0.00404.
`Cc1ccc(-n2c(SCC(=O)Nc3cccc(C)c3)nc3c(oc4ccccc43)c2=O)cc1` showed a z-score of 0.143.
In the case of `Cc1ccc(C)c(Cn2c(C(C)O)nc3ccccc32)c1` (stereo not given), the z-score is reported as -0.218.
In the case of `CC1CC(C)CN(C(=O)CN2CCN(Cc3ccc(Cl)cc3)C2=O)C1` (stereo not given), the z-score is reported as -0.081.
In the case of `CCSc1nnc(NC(=O)C2CCN(S(=O)(=O)c3c(C)c(C)cc(C)c3C)CC2)s1`, the z-score is reported as -0.0856.
In the case of `Cc1cc(C(=O)COC(=O)C2=COCCO2)c(C)n1-c1ccc2c(c1)OCO2`, the z-score is reported as -0.224.
For `Cc1cc(C)n(CC(=O)N/N=C/c2ccco2)n1`, the z-score was -0.0112.
`O=C(Nc1ccc(O)cc1)/C(=C\c1cccs1)NC(=O)c1ccccc1` gave a z-score of -0.207.
For `CCOC(=O)C1CCN(C(=O)C2CCN(S(=O)(=O)c3cc(Cl)ccc3Cl)CC2)CC1`, the z-score was -0.787.
In the case of `c1ccc2c(c1)NC1(CCCC1)n1c-2nc2ccccc21`, the z-score is reported as 0.000719.
Work on `COc1ccccc1/C=N/NC(=O)c1ccc(Cn2nc([N+](=O)[O-])cc2C)cc1` yielded a z-score of -0.00192.
Compound `CN(C)/C=C/C=C1C(=O)CCCC1=O` has a z-score of -0.105.
`CCOC(=O)CSc1nnc(CNC(=O)c2ccc(OC)cc2)n1C1CCCCC1` gave a z-score of -0.603.
In the case of `O=C(NC1CCCCC1)C(c1ccc(F)cc1)N(C(=O)Cc1ccsc1)c1ccc(F)cc1` (stereo not given), the z-score is reported as -0.112.
`O=C(Nc1ccon1)c1csc2c1CCCC2` was tested, and the z-score was -0.0861.
In the case of `O=C(NCCCO)C12CC3CC(CC(C3)C1)C2`, the z-score is reported as 0.182.
With `O=S(=O)(c1ccc(Cl)c(NC(=S)N/N=C/c2c(F)cccc2F)c1)N1CCOCC1` the z-score was -0.203.
Work on `CCn1nc(C)c(NC(=O)/C=C/c2cnn(C)c2)c1C` yielded a z-score of 0.244.
Work on `Cc1cc(C)n(C(=O)CNc2ccc(C)c(C)c2)n1` yielded a z-score of 0.00249.
In the case of `CCOC(=O)N1CCN(C(=O)c2cccc(-n3c(=S)[nH]c4cc(Cl)ccc4c3=O)c2)CC1`, the z-score is reported as 1.32.
With `O=C(Oc1ccc(Br)cc1)c1cncc(Br)c1` the z-score was 0.054.
With `COc1ccc(Cc2nc3ccccc3n2CC(=O)N/N=C/c2ccccc2)cc1OC` the z-score was 0.201.
`COc1ccccc1OCc1ccc(C(=O)NCC2CCCO2)o1` (stereo not given) gave a z-score of -0.025.
`COc1ccc2nc(N3CCC(C)CC3)c(C#N)cc2c1` showed a z-score of -0.192.
`COc1ccc(-c2cc(C(=O)OCC(=O)c3cccc([N+](=O)[O-])c3)c3cc(C)ccc3n2)cc1` was tested, and the z-score was -0.0316.
`COc1ccc2[nH]c(=O)c(CN(CCc3ccccc3)C(C)=O)cc2c1` gave a z-score of 0.442.
`CCOC(=O)c1sc2nc(C)n(CC(=O)NCC3CCCO3)c(=O)c2c1C` (stereo not given) was tested, and the z-score was 0.0771.
`NC(=O)c1ccc(Br)c(S(=O)(=O)N2CCCCC2)c1` showed a z-score of 1.64.
`O=S(=O)(c1ccccc1C(F)(F)F)N1CCOCC1` was tested, and the z-score was -0.598.
For `CCS(=O)(=O)N1CCc2cc(OC)c(OC)cc2C1`, the z-score was -0.177.
In the case of `Cc1nc(Sc2nnnn2-c2ccccc2)c(C#N)c(C)c1C`, the z-score is reported as -0.282.
`Cc1ccc(NC(=O)c2ccc(N3CCOCC3)c([N+](=O)[O-])c2)cc1S(=O)(=O)N1CCOCC1` was tested, and the z-score was -0.139.
`O=S(=O)(NCCc1csc(-c2cccnc2)n1)c1cccs1` was tested, and the z-score was -0.387.
For `CCC(=O)Nc1cc(C(=O)NCC2CCCN2CC)c(OC)cc1N(C)C` (stereo not given), the z-score was -0.0885.
With `COC(=O)c1cccc(S(=O)(=O)N(Cc2ccco2)Cc2cc3cc(OC)c(OC)cc3[nH]c2=O)c1` the z-score was -0.296.
`c1ccc(-c2nnc(CSc3nncs3)o2)cc1` showed a z-score of 0.334.
Compound `Nc1nc(SCc2ccc(Cl)cc2Cl)ns1` has a z-score of 0.11.
With `COc1ccc(S(=O)(=O)Nc2cc(C)nn2-c2ccccc2)cc1` the z-score was 0.0566.
For `CCN(CC)c1ccc(/C=N/NC(=O)Cc2nnc(NC(=O)Nc3ccccc3)s2)cc1`, the z-score was -0.282.
`COc1ccc(Br)cc1CNc1ccc(O)cc1` gave a z-score of -0.14.
With `CCOc1ccc(C(NC(=O)c2ccco2)c2ccc(OC)c(OC)c2)cc1` (stereo not given) the z-score was -0.0569.
Work on `COc1cccc(-c2[nH]nc3c2C(c2ccoc2)C(C#N)=C(N)O3)c1` (stereo not given) yielded a z-score of -0.294.
With `Cc1ccc(N=C2NC(=O)c3cc([N+](=O)[O-])ccc32)cc1` the z-score was -0.049.
`Clc1ccc(-c2nnc3n2CCCC3)cc1` gave a z-score of 0.0266.
With `CC(C)C(=O)Nc1nnc(-c2ccccc2)o1` the z-score was 0.162.
Work on `Fc1ccccc1CSc1nnc(Cn2cnc3ccccc32)n1-c1ccccc1` yielded a z-score of -0.176.
Compound `O=C(CSc1nnc(-c2ccccc2)n1Cc1ccco1)Nc1ccc(S(=O)(=O)N2CCCC2)cc1` has a z-score of -1.61.
`N#Cc1c(-c2ccccc2)[nH]c(=S)[nH]c1=O` was tested, and the z-score was -0.744.
For `COc1cccc(-c2csc(N3CCN(C(=S)Nc4ccc(Cl)cc4)CC3)n2)c1`, the z-score was 0.0281.
`O=C(NCCSc1ccccc1)c1ccccc1` was tested, and the z-score was 0.0148.
With `Cn1c(=O)c(NCCc2ccccc2)c2c3c(cccc31)C(=O)c1ccccc1-2` the z-score was 1.94.
`NC(=O)COC(=O)CNC(=O)c1ccc(Cl)cc1` showed a z-score of -0.0355.
`CC(=O)Nc1ccc(OCC(=O)c2ccc(C)cc2C)cc1` showed a z-score of 0.0995.
Work on `CC(C)(C)N(Cc1ccccc1)C(=O)c1ccc2c(c1)OCCO2` yielded a z-score of -0.815.
`CCC(C)N1C(=O)CCC1C(=O)O` (stereo not given) gave a z-score of -0.00449.
Compound `CC(C)C1C(=O)NC(=S)N1S(=O)(=O)c1ccc(C(C)(C)C)cc1` (stereo not given) has a z-score of 0.126.
`CSc1nnc(Cc2sc(-c3ccccc3)nc2-c2ccccc2)o1` was tested, and the z-score was -0.0737.
`COc1cc(/C=C/C(=O)O)cc(S(=O)(=O)Nc2ccccc2Cl)c1OC` was tested, and the z-score was -0.238.
Compound `Cc1[nH]c(=S)[nH]c(=O)c1CCOc1ccccc1` has a z-score of 0.0445.
With `CC1(C)CC(=O)CC(C2(O)C(=O)N(Cc3ccccc3)c3ccccc32)O1` (stereo not given) the z-score was 0.107.
Work on `Cc1ccc(NCc2nnc(SCC(N)=O)n2CCc2ccccc2)cc1` yielded a z-score of -1.03.

— PubChem BioAssay AID488969 (Vanderbilt High Throughput Screening Facility, 2010)
